# Test results: the BET-seq Pho4 binding data (Le et al. 2018)
# The list shows a part of the results. The energies were worked out here from pooled read counts, against the library average; single values are noisy.
# Target: T1, Pho4 (S. cerevisiae) (UniProt P07270)
# T1 sequence: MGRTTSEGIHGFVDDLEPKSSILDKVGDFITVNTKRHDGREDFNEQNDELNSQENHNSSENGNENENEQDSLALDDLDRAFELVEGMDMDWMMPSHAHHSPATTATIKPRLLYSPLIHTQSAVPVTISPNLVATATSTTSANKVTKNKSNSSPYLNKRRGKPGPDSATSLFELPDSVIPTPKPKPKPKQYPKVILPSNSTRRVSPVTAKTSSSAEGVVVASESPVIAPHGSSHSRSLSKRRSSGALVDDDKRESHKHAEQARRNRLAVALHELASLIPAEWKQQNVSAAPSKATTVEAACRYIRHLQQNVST
# Test: relative binding free energy (BET-seq); higher = weaker binding
# Conditions: reference: library average
row,Sequence,relative binding free energy [kcal/mol]
1,GTGCGCACGTGTCGGT,0.03
2,ATTGTCACGTGAGGTG,0.25
3,AGTTACACGTGGGGCG,0.02
4,CCTTTCACGTGTTATG,0.31
5,GGTTTCACGTGATCAT,0.49
6,TCGGACACGTGTTAGT,0.02
7,CAGGGCACGTGGAATT,0.1
8,TGTTCCACGTGGATAG,0.06
9,TGTATCACGTGGGAAA,0.14
10,ATTGTCACGTGCTGGC,0
11,TCTGTCACGTGTGTTA,0.08
12,TTGGTCACGTGCGTTA,0.02
13,TTGGACACGTGGGTAT,-0.01
14,CATTTCACGTGTCGGG,0.31
15,TTTTTCACGTGTTGGC,0.27
16,GTCGGCACGTGATAGT,0.03
17,TGTTACACGTGTATGC,0.1
18,TGTGACACGTGAAGGC,0.3
19,GGTATCACGTGTGCTT,0.18
20,CAGGGCACGTGCGTGT,-0.21
21,CTGGACACGTGTTTGG,-0.03
22,AGTGTCACGTGTGGCC,0.09
23,GGACTCACGTGTATGG,0.19

row,Sequence,relative binding free energy [kcal/mol]
1,CTGGACACGTGGTGCG,-0.02
2,GTATGCACGTGCTAGG,-0.1
3,GGAGCCACGTGAATGT,0.25
4,AGAGGCACGTGCCGGT,-0.2
5,CGGGGCACGTGTTAAA,-0.02
6,GGGGCCACGTGAAGGA,0.22
7,TTTTCCACGTGTTAGT,0.16
8,GGCAGCACGTGTTGTT,-0.05
9,TTTAACACGTGGAGAT,0.15
10,TATATCACGTGGAGGG,0.07
11,GTGGCCACGTGGGTCT,-0.23
12,AAGCTCACGTGAGGGT,0.35
13,TGCGTCACGTGTTGCT,0
14,AGGGACACGTGTAAGG,-0.05
15,TAGTTCACGTGGTCAG,0.1
16,TGACTCACGTGGGGAG,0.04
17,TTTAGCACGTGGAATT,0.08
18,TGGGCCACGTGTTTGC,-0.02
19,GTGCTCACGTGTGTCT,0.25
20,GGGTTCACGTGTATCT,0.38
21,TGTCGCACGTGGAAGG,0
22,TTTCACACGTGATAGG,0.21
23,AGGCACACGTGAGGGG,0.21

row,Sequence,relative binding free energy [kcal/mol]
1,CTGATCACGTGTTTGT,0.07
2,TGATCCACGTGTGGTG,-0.05
3,ACGGTCACGTGGGGGT,-0.05
4,TTCCGCACGTGTTGTT,-0.02
5,CGGATCACGTGTCGGT,0.08
6,TTGTACACGTGTCATG,0.03
7,TTCGTCACGTGGTGGT,0.04
8,AAGGGCACGTGGCTTG,-0.2
9,GGTGGCACGTGTCAAT,-0.08
10,GTTTTCACGTGTGAAC,0.45
11,TTATTCACGTGTGGTC,0.18
12,TATAGCACGTGGTATT,-0.34
13,GTGTACACGTGCGGTG,0.15
14,ATAGTCACGTGCTAGG,0.03
15,GTAGGCACGTGTAGAG,-0.13
16,TAAGACACGTGATGGG,0.11
17,TGAAGCACGTGCGTGG,-0.18
18,TTCAGCACGTGAGTTG,0.13
19,TATTGCACGTGGCAGA,-0.1
20,TATTGCACGTGGTTAT,-0.09
21,TTGGGCACGTGCAGGG,-0.11
22,TTAATCACGTGAGTGG,0.34
23,GTGTACACGTGCTTGA,0.03

row,Sequence,relative binding free energy [kcal/mol]
1,AGTTTCACGTGCGGGC,0.13
2,GGTGGCACGTGCTGTG,-0.02
3,TAAAGCACGTGTTGGT,-0.11
4,GGTAGCACGTGGAAGG,0.17
5,AAGAACACGTGAAGTG,0.38
6,GGGAGCACGTGGATTC,0.06
7,AGGGACACGTGTGGAA,0.16
8,TTTTGCACGTGCTTTG,-0.03
9,GACATCACGTGGGTTG,0.06
10,TAGATCACGTGTGGTT,0.31
11,AGTTGCACGTGTCTGG,0.02
12,TTCTACACGTGTTAGT,0.16
13,TAAATCACGTGAGTGT,0.21
14,GAGGTCACGTGCGGTA,0.12
15,GGAATCACGTGTGGCT,0.03
16,CTTATCACGTGATATT,0.2
17,TATGTCACGTGACGAG,0.11
18,AATGACACGTGTGTAA,-0.01
19,TTAGTCACGTGGTAAT,0.07
20,GGCATCACGTGTTTAT,0.23
21,TTTGGCACGTGATGTG,0
22,TAGGACACGTGTGGCG,0.08
23,CTGGTCACGTGTAGGT,0.09

row,Sequence,relative binding free energy [kcal/mol]
1,GATGGCACGTGTGAGA,-0.06
2,GGGTACACGTGTAGGG,0.11
3,TAGCTCACGTGGGGTT,0.04
4,TTGTTCACGTGATACG,0.28
5,ATAGTCACGTGCTGGA,-0.01
6,TATGTCACGTGGATCA,0.09
7,GGATGCACGTGATAAG,0.17
8,GGAGCCACGTGTGTTA,0.04
9,TGTATCACGTGTGCGC,0.21
10,AATGTCACGTGGTTTG,0.06
11,CAATGCACGTGGTAGT,-0.09
12,CGGTTCACGTGGTAGA,0.24
13,TATGACACGTGTGATG,0.12
14,AGTTACACGTGGGATA,0.13
15,AAGTTCACGTGTTGTT,0.36
16,TGTTTCACGTGCTCAG,0.18
17,AAGGTCACGTGCGTGT,-0.14
18,GATTGCACGTGTGAAT,0.21
19,TGTTTCACGTGAGTGC,0.42
20,TTAATCACGTGATGTT,0.18
21,TTTATCACGTGGGTTA,-0.04
22,TGGGTCACGTGATTTT,0.31
23,AGTGACACGTGAAGGA,0.22
